# The other results are listed elsewhere or left out.
# B1: NPA (Narcissus pseudonarcissus), C0HM45 (protein)
# chain: DNILYSGETLSPGEFLNNGRYVFIMQEDCNLVLYDVDKPIWATNTGGLDRRCHLSMQSDGNLVVYSPRNNPIWASNTGGENGNYVCVLQKDRNVVIYGTARWATGTNIH
# How the values were obtained:
# Test in all cases: glycan array binding signal (z-score within array); higher = stronger binding
# Settings in all cases: glycan notation: IUPAC condensed, linker removed
# [1] = biological target: Gal(b1-4)GlcNAc(b1-3)GalNAc
# Outline: (§1)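 Glycan array data were curated from 3228 arrays in the Consortium for Functional Glycomics database and kept only where the protein sequence was available. Glycan names were converted to IUPAC-condensed notation, and columns mapping to the same glycan were averaged. The binding signal is a within-array Z-score, averaged across arrays of the same protein sequence at different concentrations or buffers and across linkers. Negative Z-scores can be read as non-binding.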
# [2] = biological target: Gal(b1-4)GlcNAc(b1-3)[Fuc(a1-3)GlcNAc(b1-6)]Gal(b1-4)Glc
# Outline: as §1
# [3] = biological target: Gal(b1-4)GlcNAc(b1-3)[Gal(b1-4)GlcNAc(b1-6)]Gal(b1-4)GlcNAc
# Outline: as §1
# [4] = biological target: Gal(b1-4)GlcNAc(b1-3)[Gal(b1-4)GlcNAc(b1-6)]GalNAc
# Outline: as §1
# [5] = biological target: Gal(b1-4)GlcNAc(b1-3)[GlcNAc(b1-6)]Gal(b1-4)GlcNAc
# Outline: as §1
# [6] = biological target: Gal(b1-4)GlcNAc(b1-6)Gal(b1-4)GlcNAc
# Outline: as §1
# [7] = biological target: Gal(b1-4)GlcNAc(b1-6)Gal(b1-4)GlcNAc(b1-6)GalNAc
# Outline: as §1
# [8] = biological target: Gal(b1-4)GlcNAc(b1-6)GalNAc
# Outline: as §1
# [9] = biological target: Gal(b1-4)GlcNAc(b1-6)[Gal(b1-3)]GalNAc
# Outline: as §1
# [10] = biological target: Gal(b1-4)GlcNAc(b1-6)[Gal(b1-4)GlcNAc(b1-3)]GalNAc
# Outline: as §1
# Gal(b1-4)GlcNAc6P = biological target: Gal(b1-4)GlcNAc6P
# Outline: as §1
# Gal(b1-6)Gal = biological target: Gal(b1-6)Gal
# Outline: as §1
# Gal3S(b1-3)GalNAc = biological target: Gal3S(b1-3)GalNAc
# Outline: as §1
# Gal3S(b1-3)GlcNAc = biological target: Gal3S(b1-3)GlcNAc
# Outline: as §1
# [11] = biological target: Gal3S(b1-3)[Fuc(a1-4)]GlcNAc
# Outline: as §1
# Gal3S(b1-4)Glc = biological target: Gal3S(b1-4)Glc
# Outline: as §1
# Gal3S(b1-4)Glc6S = biological target: Gal3S(b1-4)Glc6S
# Outline: as §1
# Gal3S(b1-4)GlcNAc = biological target: Gal3S(b1-4)GlcNAc
# Outline: as §1
# Gal3S(b1-4)GlcNAc6S = biological target: Gal3S(b1-4)GlcNAc6S
# Outline: as §1
# [12] = biological target: Gal3S(b1-4)[Fuc(a1-3)]Glc6S
# Outline: as §1
# [13] = biological target: Gal3S(b1-4)[Fuc(a1-3)]GlcNAc
# Outline: as §1
# [14] = biological target: Gal3S(b1-4)[Fuc(a1-3)]GlcNAc6S
# Outline: as §1
# Gal3S4S(b1-4)GlcNAc = biological target: Gal3S4S(b1-4)GlcNAc
# Outline: as §1
binder,measurement,setting,value
B1,glycan array binding signal (z-score),[1],-0.144
same,glycan array binding signal (z-score),[2],-0.132
same,glycan array binding signal (z-score),[3],-0.145
same,glycan array binding signal (z-score),[4],-0.201
same,glycan array binding signal (z-score),[5],-0.143
same,glycan array binding signal (z-score),[6],-0.153
same,glycan array binding signal (z-score),[7],-0.202
same,glycan array binding signal (z-score),[8],-0.139
same,glycan array binding signal (z-score),[9],-0.151
same,glycan array binding signal (z-score),[10],-0.141
same,glycan array binding signal (z-score),Gal(b1-4)GlcNAc6P,-0.143
same,glycan array binding signal (z-score),Gal(b1-6)Gal,-0.127
same,glycan array binding signal (z-score),Gal3S(b1-3)GalNAc,-0.144
same,glycan array binding signal (z-score),Gal3S(b1-3)GlcNAc,-0.153
same,glycan array binding signal (z-score),[11],-0.145
same,glycan array binding signal (z-score),Gal3S(b1-4)Glc,-0.146
same,glycan array binding signal (z-score),Gal3S(b1-4)Glc6S,-0.149
same,glycan array binding signal (z-score),Gal3S(b1-4)GlcNAc,-0.145
same,glycan array binding signal (z-score),Gal3S(b1-4)GlcNAc6S,-0.205
same,glycan array binding signal (z-score),[12],-0.125
same,glycan array binding signal (z-score),[13],-0.147
same,glycan array binding signal (z-score),[14],-0.133
same,glycan array binding signal (z-score),Gal3S4S(b1-4)GlcNAc,-0.143
